Results on 39 compounds are retold here after PubChem BioAssay AID1745853 (National Center for Advancing Translational Sciences (NCATS), 2022).

The list shows a part of the results. These are further read-outs of the screen, such as a control signal, another cell line or another target. No call is given for them.

Assay in all cases: Primary Screen for Target Class Profiling of Small Molecule Inhibitors of Methyltransferases
In assay [1] the target is Glycine N-methyltransferase (Homo sapiens) (UniProt Q14749). To be noted: purified enzyme, MTase-Glo SAH luminescence; measured here: GNMT inhibition; at 40 µM; stronger effect = lower value. An outline of the steps: (§1)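 Each enzyme was assayed with SAM and its substrate. SAH formation detected by MTase-Glo luminescence; single-point 40 uM screen[…].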
Assay [2] has as its target Guanidinoacetate N-methyltransferase (Homo sapiens) (UniProt Q14353). To be noted: purified enzyme, MTase-Glo SAH luminescence; measured here: GAMT inhibition; at 40 µM; stronger effect = lower value. Summed up: as §1
Assay [3] has as its target Histamine N-methyltransferase (Homo sapiens) (UniProt P50135). To be noted: purified enzyme, MTase-Glo SAH luminescence; measured here: HNMT inhibition; at 40 µM; stronger effect = lower value. An outline of the steps: as §1
Assay [4] addresses Nicotinamide N-methyltransferase (Homo sapiens) (UniProt P40261). To be noted: purified enzyme, MTase-Glo SAH luminescence; measured here: NNMT inhibition; at 40 µM; stronger effect = lower value. Summed up: as §1
Assay [5] deals with Phenylethanolamine N-methyltransferase (Homo sapiens) (UniProt P11086). To be noted: purified enzyme, MTase-Glo SAH luminescence; measured here: PNMT inhibition; at 40 µM; stronger effect = lower value. Summed up: as §1
% is set by controls: 0 for no effect and ±100 for the full control effect.

For the compound `CCC1c2ccc(C)n2CCN1C(=O)Nc1ccccc1C(=O)OC` (configuration not stated), the activity change, negative = inhibition was -1.5% in assay [1]; -1.57% in assay [2]; 8.09% in assay [3]; 5.34% in assay [4]; -1.42% in assay [5].
Consider `O=C(Nc1ccccc1C(=O)Nc1ccc(CCO)cc1)c1ccc([N+](=O)[O-])cc1`, for which the activity change, negative = inhibition in assay [1] is -7.16%; in assay [2], -2.09%; in assay [3], 5.58%; in assay [4] it was -17.2%; in assay [5], 2.44%.
With `O=S(=O)(NCCc1ccccc1)c1ccc2[nH]c3c(c2c1)CCCC3`, the activity change, negative = inhibition in assay [1] was -6.77%; in assay [2], 1.28%; in assay [3], -22.9%; in assay [4], -13.1%; in assay [5], -3.73%.
In the case of `CN1C(=O)c2cc3ccccc3n2CC1(C)C(=O)NCC(=O)NCCCc1ccccc1` (configuration not stated), the activity change, negative = inhibition in assay [1] was 0.293%; in assay [2], 0.201%; in assay [3], 11.3%; in assay [4], 4.85%; in assay [5], 6.38%.
Turning to `O=C(CCn1cccn1)NC1CC(=O)N(Cc2cccc3ccccc23)C1` (configuration not stated), the activity change, negative = inhibition in assay [1] was -6.35%; in assay [2], -9.44%; in assay [3], -4.71%; in assay [4], -13.5%; in assay [5], -8.44%.
Take `Cc1cnc(CNC(=O)c2c(=O)c3ccc(N4CCCN(C)CC4)nc3n3c2sc2ccccc23)cn1`: the activity change, negative = inhibition in assay [1] was -40.7%; in assay [2], 9.45%; in assay [3] it was -5.7%; in assay [4] it was -6.7%; in assay [5], 2.18%.
For the compound `CCc1ccc(CN2C(=O)c3ccc(-c4ccccc4)n3CC2(C)C(=O)NC2CCCCCC2)cc1` (configuration not stated), the activity change, negative = inhibition in assay [1] is 0.296%; in assay [2], 0.077%; in assay [3], -1.07%; in assay [4] it was -4.61%; in assay [5], -4.85%.
As to `Cc1cc(C)c(CNC(=O)c2nc(-c3cccnc3)cc3[nH]ccc23)c(=O)[nH]1`, the activity change, negative = inhibition in assay [1] was -45.8%; in assay [2], -19.6%; in assay [3], -20.9%; in assay [4], -26.6%; in assay [5], -26.2%.
In the case of `CN(C)c1ccc(CNC(=O)c2cc3n(n2)CC(C)(C(=O)NCc2ccc(F)cc2)N(C)C3=O)cc1` (configuration not stated), the activity change, negative = inhibition in assay [1] was -3.65%; in assay [2], 2.11%; in assay [3], -8.22%; in assay [4], -4.74%; in assay [5] it was -0.283%.
As for `Cn1c(=O)n(C)c2cc(S(=O)(=O)NCc3ccccc3Cl)ccc21`, the activity change, negative = inhibition in assay [1] was 12.1%; in assay [2], 0%; in assay [3], 5.3%; in assay [4] it was -4.53%; in assay [5], -2.87%.
Take `COc1cccc(CN2C(=O)c3cc4ccccc4n3CC2(C)C(=O)NC2CCCCCC2)c1` (configuration not stated): the activity change, negative = inhibition is -5.16% in assay [1]; 0% in assay [2]; -5.65% in assay [3]; -17.8% in assay [4]; -14.3% in assay [5].
With `COc1ccc(C2NC(C(=O)O)Cc3c2[nH]c2ccccc32)cc1OC` (configuration not stated), the activity change, negative = inhibition in assay [1] is -17.3%; in assay [2], 0.324%; in assay [3] it was 8.44%; in assay [4] it was -3.12%; in assay [5], 3.34%.
As to `C=CC(C)(C)C12CC3C(=O)NC(Cc4cnc[nH]4)C(=O)N3C1Nc1ccccc12` (configuration not stated), the activity change, negative = inhibition in assay [1] was 5.18%; in assay [2], 2.13%; in assay [3], 7.19%; in assay [4] it was -11.4%; in assay [5], -10.6%.
For `CCOC(=O)N1CCC(N[C@@H]2CC[C@@H]2NC(=O)CCn2cncn2)CC1` the same measures were -1.52%, -4.4%, 0.024%, -8.14% and -3.62%.
Regarding `C=C1C2CCC3CC2(CC(O)C2(O)C1CC(OC1OC(CO)C(O)C(O)C1O)C2(C)C)CC3(C)O` (configuration not stated), the activity change, negative = inhibition in assay [1] was -0.025%; in assay [2], 1.88%; in assay [3], 9.12%; in assay [4], -9.57%; in assay [5], 1.69%.
`NC(=O)COC[C@@H]1CN(Cc2ccco2)C[C@H]1c1ccncc1`: the activity change, negative = inhibition in assay [1] was -9.41%; in assay [2], -11.9%; in assay [3] it was -7.82%; in assay [4] it was -14%; in assay [5] it was 5.71%.
Take `COC[C@H]1NC(=O)CC[C@H]1C(=O)N1CCCc2ccccc21`: the activity change, negative = inhibition is -4.71% in assay [1]; -2.11% in assay [2]; 1.13% in assay [3]; -5.61% in assay [4]; -0.163% in assay [5].
Regarding `CCC(=O)O[C@]1(C(=O)CCl)[C@@H](C)C[C@H]2[C@@H]3C[C@H](F)C4=CC(=O)C=C[C@]4(C)[C@@]3(F)[C@@H](O)C[C@@]21C`, the activity change, negative = inhibition is -2.12% in assay [1]; 2.69% in assay [2]; 8.72% in assay [3]; -22.5% in assay [4]; -2.68% in assay [5].
As for `Cc1ccc(CNC(=O)C2(C)Cn3cnc(C(=O)NCc4ccc(N(C)C)cc4)c3C(=O)N2C2CC2)cc1` (configuration not stated), the activity change, negative = inhibition in assay [1] was -6.85%; in assay [2], 0.736%; in assay [3], -1.36%; in assay [4], -1.44%; in assay [5] it was -5.03%.
As to `CCc1cc2c(cc3n2CC(C)(C(=O)NC2CCCCC2)N(Cc2ccccc2)C3=O)s1` (configuration not stated), the activity change, negative = inhibition in assay [1] is -8.41%; in assay [2], 0.956%; in assay [3] it was -8.86%; in assay [4], -5.58%; in assay [5], -10.9%.
Consider `O=C1CN(Cc2ccccc2Cl)S(=O)(=O)c2ccccc2N1Cc1ccc(Cl)cc1`, for which the activity change, negative = inhibition is 17.1% in assay [1]; 0.85% in assay [2]; 12.5% in assay [3]; 7.34% in assay [4]; 10.4% in assay [5].
`CC(C)C1CCC(C(=O)N[C@@H](Cc2ccccc2)C(=O)O)CC1` (some centres not stated): the activity change, negative = inhibition in assay [1] was -1.3%; in assay [3] it was 12.2%.
Consider `CCCNC(=O)NCCn1c(C)cnc1-c1ccncc1`, for which the activity change, negative = inhibition in assay [1] is -5.13%; in assay [2], -7.12%; in assay [3], -5.19%; in assay [4] it was -8.68%; in assay [5] it was -7.67%.
Taken in the same sequence, the figures for `Cc1ccccc1NC(=O)CSc1nnc2n(CCCOC(C)C)c(=O)c3ccccc3n12` were -0.044%, 0%, 2.47%, 1.19% and 3.23%.
As to `CCOC(=O)c1ccc2c(c1)C1C=CCC1C(c1ccccc1F)N2` (configuration not stated), the activity change, negative = inhibition is -15% in assay [1]; -0.517% in assay [2]; -4.79% in assay [3]; -9.61% in assay [4]; -11.9% in assay [5].
Taken in the same sequence, the figures for `CC(C)CCn1c(=O)c2ccccc2n2c(CCC(=O)NCCCN3CCN(c4ccccc4F)CC3)nnc12` were -5.09%, 0.867%, 1.01%, 8.19% and 2.68%.
For `C/C=C/C1=CC2=C(CO1)C(=O)[C@](C)(O)[C@H](OC(=O)c1c(O)cc(OC)c(O)c1C)C2`, the activity change, negative = inhibition in assay [1] is -0.901%; in assay [2], -6.13%; in assay [3], 1.21%; in assay [4], -16.2%; in assay [5] it was 1.3%.
On to `CCCn1c(=O)c2ccc(C(=O)NC(C)CC)cc2n2c(=O)n(CC(=O)NC3CCCCC3)nc12` (configuration not stated), for which the activity change, negative = inhibition in assay [1] is 3.5%; in assay [2] it was 0%; in assay [3] it was 7.04%; in assay [4], 3%; in assay [5], -2.69%.
For the compound `C#CCN(C)CC[C@@H]1CC[C@H](O)[C@@H](C(=O)NC2CCCCC2)O1`, the activity change, negative = inhibition is -3.66% in assay [1]; -7.92% in assay [2]; -2.75% in assay [3]; -11.7% in assay [4]; -4.8% in assay [5].
For the compound `CC(C)(C)c1cc2n(n1)CC(C)(C(=O)NC1CCCCCC1)N(Cc1ccc(F)cc1)C2=O` (configuration not stated), the activity change, negative = inhibition is 1.75% in assay [1]; 0% in assay [2]; -0.09% in assay [3]; -1.94% in assay [4]; 0.574% in assay [5].
As to `CCc1ccc(CNC(=O)Cn2c(C)cc3nc4n(c(=O)c32)CCCC4)cc1`, the activity change, negative = inhibition in assay [1] was -1.53%; in assay [2], 0.694%; in assay [3] it was 2.43%; in assay [4], 0.378%; in assay [5] it was -8.35%.
Regarding `C=CCCC(CN1CCOCC1)Oc1ccc(-c2ccccc2)nn1` (configuration not stated), the activity change, negative = inhibition in assay [1] is -1.17%; in assay [2], -1.42%; in assay [3], 1.49%; in assay [4], -2.57%; in assay [5], 0.077%.
As to `CC1(C(=O)NC2CCCCC2)Cn2c(cc3sccc32)C(=O)N1CCc1ccccc1` (configuration not stated), the activity change, negative = inhibition was -5.87% in assay [1]; 2.14% in assay [2]; -5.11% in assay [3]; -6.46% in assay [4]; -2.21% in assay [5].
As for `OC[C@H]1O[C@@H](n2cnc3cncnc32)[C@H](O)[C@@H]1O`, the activity change, negative = inhibition was -83.9% in assay [1]; -80.6% in assay [2]; -80.2% in assay [3]; -75.1% in assay [4]; -85.8% in assay [5].
For `CCCn1c(=O)c2cc(Cl)ccc2n2c(=O)n(CC(=O)c3ccc(OCC)cc3)nc12` the same measures were 6.33%, 0.561%, 4.13%, 8.65% and 5%.
Take `Cc1cccc(Cn2nc3n(CCC(C)C)c(=O)c4ccc(C(=O)NCC(C)C)cc4n3c2=O)c1`: the activity change, negative = inhibition in assay [1] was found to be 7.01%; in assay [2], 0%; in assay [3], 7.32%; in assay [4], 2.15%; in assay [5], 6.34%.
`O=C(Nc1ncc(-c2cc(C(F)F)nn2-c2c(Cl)cccc2Cl)s1)C1CC1`: the activity change, negative = inhibition in assay [1] is -5.29%; in assay [2] it was 5.73%; in assay [3], 2.12%; in assay [4] it was -34.3%; in assay [5], 1.99%.
For `CCN(CC)C(=O)N1CCC(c2noc(-c3ccccc3)n2)C1` (configuration not stated) the same measures were -5.37%, -8.88%, -4.04%, -17.4% and 10.4%.
Turning to `CC(=O)NC1CCN(Cc2cn(-c3ccc(C)cc3)nc2-c2cccc(C)c2)C1` (configuration not stated), the activity change, negative = inhibition was -9.57% in assay [1]; -7.56% in assay [2]; -5.25% in assay [3]; -11.5% in assay [4]; -7.42% in assay [5].
